Experimental data: PMC4336329 (PLoS ONE, 2015)
Screen size: about 310,000 compounds; about 2,200 (0.71%) showed an effect of 50% or more. The effect is printed as a negative number. The list shows a part of the results.

These compounds were tested against human ether-à-go-go-related gene (hERG) potassium channel (human, UniProt Q12809) (assay: primary screen, population patch clamp on CHO cells stably expressing hERG).
Chain of human ether-à-go-go-related gene (hERG) potassium channel (Q12809 whole entry, looked up): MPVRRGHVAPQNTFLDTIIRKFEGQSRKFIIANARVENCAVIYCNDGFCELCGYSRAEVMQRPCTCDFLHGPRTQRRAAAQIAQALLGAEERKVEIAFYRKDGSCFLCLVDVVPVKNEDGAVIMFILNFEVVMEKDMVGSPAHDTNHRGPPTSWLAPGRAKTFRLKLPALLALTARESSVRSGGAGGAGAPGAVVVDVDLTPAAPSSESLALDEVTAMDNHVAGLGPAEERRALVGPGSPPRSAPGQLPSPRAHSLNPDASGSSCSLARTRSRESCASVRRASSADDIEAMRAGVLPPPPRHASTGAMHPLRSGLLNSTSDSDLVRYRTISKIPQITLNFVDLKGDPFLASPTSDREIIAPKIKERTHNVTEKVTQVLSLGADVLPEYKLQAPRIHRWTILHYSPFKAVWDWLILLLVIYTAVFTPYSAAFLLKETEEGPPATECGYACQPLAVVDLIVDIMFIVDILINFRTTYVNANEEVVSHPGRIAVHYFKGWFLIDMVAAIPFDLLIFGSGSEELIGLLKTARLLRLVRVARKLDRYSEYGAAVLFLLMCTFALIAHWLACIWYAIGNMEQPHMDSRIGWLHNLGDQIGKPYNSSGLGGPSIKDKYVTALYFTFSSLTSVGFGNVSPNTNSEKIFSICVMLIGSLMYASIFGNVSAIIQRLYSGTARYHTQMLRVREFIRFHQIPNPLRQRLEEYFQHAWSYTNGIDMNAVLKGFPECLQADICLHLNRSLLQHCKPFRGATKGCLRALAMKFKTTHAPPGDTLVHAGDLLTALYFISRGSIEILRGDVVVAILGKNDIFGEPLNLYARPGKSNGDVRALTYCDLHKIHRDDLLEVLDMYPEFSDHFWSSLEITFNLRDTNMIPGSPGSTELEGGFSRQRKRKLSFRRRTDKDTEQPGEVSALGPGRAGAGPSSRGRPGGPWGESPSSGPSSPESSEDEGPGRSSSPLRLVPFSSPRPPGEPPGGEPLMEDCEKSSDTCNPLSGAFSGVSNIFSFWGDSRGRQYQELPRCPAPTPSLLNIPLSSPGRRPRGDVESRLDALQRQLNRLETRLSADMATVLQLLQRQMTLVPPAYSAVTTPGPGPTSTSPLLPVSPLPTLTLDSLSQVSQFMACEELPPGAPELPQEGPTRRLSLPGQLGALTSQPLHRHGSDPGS

| SMILES | hERG current change (%, negative = inhibition) at 1uM [%] |
| --- | --- |
| CC(Sc1nc(-c2ccccc2)cs1)C(=O)Nc1ccc(Cl)cn1 (stereo not drawn) | 10.6 |
| O=C(C1CCC1)N1CCN(S(=O)(=O)c2ccccc2)CC1 | 14.7 |
| CCn1cnc2c1c(=O)n(CC(=O)NCC(C)C)c(=O)n2Cc1ccccc1 | 14.7 |
| COc1ccc(/C=C/C(=O)NCc2cccnc2)cc1 | 13.1 |
| ON1C2CCCCC2N(O)C1c1ccccc1C(F)(F)F (stereo not drawn) | 8.73 |
| Cc1ccc(NC(=O)CN(C)C(=O)c2ccc(NC(=O)CC3SC(N4CCCC4)=NC3=O)cc2)cc1 (stereo not drawn) | 4.38 |
| NC(=O)[C@@H]1CCCCNc2c(F)cc([N+](=O)[O-])cc2C(=O)N[C@@H](CC(=O)O)C(=O)N[C@@H](CCC(=O)O)C(=O)N1 | 14.8 |
| Cc1ccc2c(c1)C(C)CC(C)(C)N2C(=O)NC1CCCCC1 (stereo not drawn) | 14.8 |
| CCOC(=O)N1CCC(NC(=O)C2CCCN2C(=O)OCc2ccccc2)CC1 (stereo not drawn) | -0.223 |
| C/C(=N\NC(=O)c1ccc(NS(=O)(=O)c2cccs2)cc1)c1cccs1 | 0.571 |
| CC(Oc1ccc(F)cc1)C(=O)Oc1ccc(N(C)S(=O)(=O)c2ccccc2)cc1 (stereo not drawn) | 20 |
| Cc1cc(C)n2c(SCC(=O)NCc3ccc4c(c3)OCO4)nnc2n1 | 10.8 |
| Cc1nn(Cc2ccccc2Cl)c(C)c1NC(=O)NC12CC3CC(CC(C3)C1)C2 | 9.14 |
| CCN(CC)c1nc2c3c(nc4c(c3c1C#N)CC(=O)N4c1ccc(Cl)cc1)NC(C)=N2 | 1.84 |
| CN1CCN(S(=O)(=O)c2cccc(C(=O)NCCC3=CCCCC3)c2)CC1 | 4.76 |
| COc1ccc(CCC(=O)Nc2cc(S(=O)(=O)N3CCOCC3)ccc2OC(C)C)cc1 | -4.48 |
| CC(=O)SC(C[N+](=O)[O-])c1cn(C(C)=O)c2ccccc12 (stereo not drawn) | 7.46 |
| Cc1cc(OCC(=O)O)c2ccccc2n1 | 16.4 |
| CN1CCN(c2nc3c(c(=O)[nH]c(=O)n3C)n2Cc2ccccc2)CC1 | 0.758 |
| CCOC(=O)C(O)(CC(=O)Nc1ccc(Cl)cc1Cl)C(F)(F)F (stereo not drawn) | 6.91 |
| C(=C\c1nc(N2CCCC2)c2ccccc2n1)/c1ccccc1 | -25.2 |
| CC(C)(C)c1ccc(/C=C(\c2nc3ccccc3[nH]2)S(=O)(=O)c2ccccc2)cc1 | 11.5 |

| SMILES | hERG current change (%, negative = inhibition) at 1uM [%] |
| --- | --- |
| Cc1cc(C(=O)NC2CC(C)(C)Cc3c2cnn3-c2ccccc2)n[nH]1 (stereo not drawn) | -14 |
| COc1ccc(CCNC(=O)CNCC2CCCO2)cc1OC.O=C(O)C(=O)O (stereo not drawn) | 10.5 |
| CC1(c2nnc(Cc3ccccc3)o2)CC(c2c(Cl)cccc2Cl)=NO1 (stereo not drawn) | 1.4 |
| Cc1ccc(C(=O)/C=C/c2cc(Br)cc(Br)c2O)o1 | 14.6 |
| Cc1ccc(-n2nnnc2SCC(=O)N2CC(=O)Nc3ccccc32)cc1 | -0.829 |
| Cc1ccc(C)c(OCC(=O)Nc2ccccc2N2CCCC2)c1 | 13 |
| CCNC(=O)C1Cc2ccccc2CN1S(=O)(=O)c1ccc(F)cc1 (stereo not drawn) | -6.04 |
| O=C(CCNS(=O)(=O)c1ccccc1)N1CCCCCCC1 | 5.17 |
| CS(=O)(=O)Nc1ccc(S(=O)(=O)N2CCCCCC2)cc1 | -40.1 |
| Cc1ccc(NC(=O)CN(C)C(=O)c2ccc(Cl)c([N+](=O)[O-])c2)cc1 | -15.3 |
| CN(C)C(=O)COC(=O)c1ccccc1Nc1ccc(SC(F)F)cc1 | 7.32 |
| O=C(NC(Cc1ccccc1)C(=O)O)c1cccnc1Cl (stereo not drawn) | 8.38 |
| CCn1c(=O)c2sccc2n(Cc2cc(C(=O)OC)ccc2OC)c1=O | 9.16 |
| Cc1cccc(N(C(=O)c2ccco2)C(C(=O)NC2CCCC2)c2cccnc2)c1C (stereo not drawn) | -1.27 |
| CCN(CC)CCNC(=O)Cn1ncc2ccccc2c1=O | 14.9 |
| CCc1c(C)nc2ncnn2c1N1CCCC(C(=O)NCCc2ccc(OC)cc2)C1 (stereo not drawn) | -1 |
| Cc1cc(C)c(NC(=O)Cn2nnc(C(=O)NCc3ccc4c(c3)OCO4)c2N)c(C)c1 | 12.2 |
| O=C(NC(=O)c1csnn1)Nc1ccccc1Cl | 8.17 |
| CC1(C)CN(c2cccc(-c3ccnc4ncnn34)c2)C1=O | 8.75 |
| N#Cc1ccc(NC(=O)CN2C(=O)NC3(CCCC3)C2=O)cc1Cl | 17.1 |
| CCc1ccccc1N(CC(=O)NCc1ccccc1)C(=O)CCC(=O)Nc1ccccn1 | 8.47 |
| Cc1ccc(CNC(=O)C(=O)Nc2nccs2)cc1 | 15.6 |

| SMILES | hERG current change (%, negative = inhibition) at 1uM [%] |
| --- | --- |
| CC(C)CNC(=O)COC(=O)c1ccc(Cl)c(S(=O)(=O)N2CCc3ccccc32)c1 | 14 |
| CC/C=C/C(=O)N1CC2(CC(c3cccc(NC(=O)COc4ccc(Cl)cc4)c3)=NO2)C[C@H]1C(N)=O (stereo partly drawn) | -2.91 |
| CC(C)Oc1ccc(S(=O)(=O)N2CCOCC2)cc1NC(=O)C1CCC1 | 3.74 |
| Cc1nc2sc3c(c2c(=N)n1N)CCCC3 | 9.05 |
| O=C(Nn1cnnc1)c1cc2c(s1)CCCCC2 | -2.72 |
| CC(C)NC(=O)NC(=O)COC(=O)c1ccc(F)cc1F | 7.53 |
| CCC(=O)Nc1sc2c(c1C#N)CC(C)(C)NC2(C)C | 6.85 |
| CC(C)Cn1cnc2c1c(=O)n(CC(=O)Nc1ccc3c(c1)OCO3)c(=O)n2Cc1ccccc1 | 1.82 |
| Cc1ccc2cc(C#N)c(SCC(=O)N3CCCc4ccccc43)nc2c1 | 6.41 |
| Cc1ccc(N=Nc2c(C)[nH]n(C(N)=S)c2=O)cc1C | 11.2 |
| CCOc1ccc(NC(=O)CSc2nnc(CCNC(=O)c3ccc(OC)cc3)n2CC)cc1 | -11.6 |
| COc1ccc(S(=O)(=O)NC(N)=NCCc2ccc(OC)c(OC)c2)cc1 | 13.1 |
| Cc1ccc2cc(CN(Cc3ccc4c(c3)OCO4)Cc3nnnn3Cc3ccco3)c(=O)[nH]c2c1C | -1.26 |
| COc1ccc(CNC(=O)c2cccs2)cc1 | -0.685 |
| COc1ccccc1C(=O)N/C(=C\c1cn(C)c2ccccc12)C(=O)NCCCn1ccnc1 | 12.2 |
| Cc1ccc2c(c1)-c1cc(C)nn1C(c1ccc3c(c1)OCO3)N2 (stereo not drawn) | 9.75 |
| COc1ccc(C(=O)N/C(=C\c2cn(C)c3ccccc23)C(=O)NCCN2CCOCC2)cc1OC | 14.9 |
| Cc1cccnc1NC(=O)CCNS(=O)(=O)c1ccc2c(c1)c(=O)n(C)c(=O)n2C | 24.2 |
| CCOC(=O)c1c(NC(=O)CN2CCOCC2)sc(C(=O)NC)c1C | 7.06 |
| CN(C(=O)C1CCC1C(=O)O)c1nc(-c2ccc(Cl)s2)cs1 (stereo not drawn) | 9.92 |
| O=C(CNC(=S)NC(=O)c1ccc(Br)o1)c1ccccc1 | 14.1 |
| Cc1cccc(NC(=S)NNC(=S)NC2CCCCC2)c1C | 13.1 |

| SMILES | hERG current change (%, negative = inhibition) at 1uM [%] |
| --- | --- |
| O=C(CCCCCNC(=O)c1ccccc1Br)N=Nc1c(O)[nH]c2ccccc12 | 4.75 |
| Clc1ccccc1CSc1ncn(-c2ccccc2)n1 | -22.1 |
| Brc1ccc(OCCN2CCOCC2)cc1 | 5.92 |
| O=C(c1n[nH]c(=O)c2ccccc12)N1CCOCC1 | 11.6 |
| Cc1ccc(CN(C)Cc2cc(=O)oc3cc(C)c(Cl)cc23)cc1 | 15.6 |
| Cn1ccnc1SCC(=O)c1ccc(F)cc1 | 14.3 |
| Cc1ccc(C(=O)COC(=O)C2CCC2)cc1 | 18.3 |
| Cc1ccc(C(C)C)c(OCC(=O)NC2CCN(C)CC2)c1 | 7.64 |
| O=C(c1ccccc1CCc1ccccc1)N1CCOCC1 | 8.77 |
| CCn1c(COc2ccc3c(c2)CCCC3)nnc1SCC(=O)Nc1ccc(C(=O)OC)cc1 | 3.65 |
| CCOc1cc(C(=O)N(C)CC(=O)Nc2cccc(F)c2)ccc1OCC(=O)N1CCCCC1 | 8.02 |
| Cc1ccc(-c2csc3nnc(SCC(=O)NCc4ccc5c(c4)OCO5)n23)cc1 | -21.1 |
| Cc1ccc(C(=O)Nc2cccnc2)cc1S(=O)(=O)N1CCCCC1 | 10.2 |
| CN(C(=O)c1ccc(NC(=O)Cc2cccc(NC(=O)C3CCCN(C(=O)C4CCCC4)C3)c2)cc1)C1CCCC1 (stereo not drawn) | 9.21 |
| CC(OC(=O)COc1ccc(C#N)cc1)C(=O)Nc1ccc(Cl)cn1 (stereo not drawn) | 0.0565 |
| COc1ccc(NC(=O)C2Cc3ccccc3CN2C(=O)c2ccccc2)cn1 (stereo not drawn) | 8.2 |
| Cc1cccc(Nc2nc(N)c([N+](=O)[O-])c(NCc3ccccc3)n2)c1 | 5.82 |
| COc1ccc(/C=C2\CCc3ccccc3C2=O)cc1O | 14.2 |
| CC1CCN(c2oc(Cc3cccc4ccccc34)nc2C#N)CC1 | -0.584 |
| CC(C)c1ccc(Nc2nc(NCc3ccco3)nc(N3CCOCC3)n2)cc1 | 7.58 |
| COc1ccccc1-c1nc(SCC(=O)NCc2ccco2)c2c(=O)n(C)c(=O)n(C)c2n1 | 11.9 |
